Measured values as given in PubChem BioAssay AID1671194 (National Center for Advancing Translational Sciences (NCATS), 2021).
The whole screen tested about 140,000 compounds, of which about 240 (0.17%) were called active. Inconclusive results, whose numbers are uncertain, are shown with a selection of clear calls. Calls follow the shape of the dose curve; as a rule, active = well fitted inhibition curve with a large enough effect; inconclusive = small, poorly fitted or top-dose-only effect; inactive = no such curve, though single readings can be large or run the other way. A potency beside an inconclusive call is a rough fit, not a confirmed value.

Test: Primary qHTS assay for inhibitors of alpha-synuclein gene (SNCA) expression; also: nearly all actives have a fitted effect of over 45% in size;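 as to activity change, negative = inhibition: plate controls were DMSO cells for no effect and cell-free wells for full effect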
Settings: HEK-293 SNCA-luciferase knock-in, luminescence, 24 h; activity change, negative = inhibition: at 57.2 µM (top of the series)
Potency is read from the fitted curve at half-maximal effect; tags tell the direction and shape of the fitted curve.

Compound | activity change, negative = inhibition | Potency
CC(C)NC(=O)NC[C@H]1C[C@@H]2CCN1C[C@@H]2CN1CCC(Cc2ccccc2)CC1 | inactive: -17.5% [at 87.6 µM] | –
O=C1NCc2ccccc2CC12CCCN2Cc1ccc(Br)cn1 (configuration not stated) | – | inconclusive: 5.01 µM [inhibitor, single point]
COc1cc2c(cc1Oc1ccccc1)NC(=O)C21CCN(Cc2cccnc2)CC1 | inactive: -29.8% [at 87.6 µM] | –
COc1cccc(CC(=O)N2[C@H]3CC[C@@H]2c2cnc(-c4ccccc4)nc2C3)c1 | – | inconclusive: 10 µM [inhibitor, single point]
Cc1nc(-c2ccccc2Br)cc([C@H]2CN3CC[C@H]2C[C@@H]3CNC(=O)Nc2ccc(Cl)cc2)n1 | – | inconclusive: 3.55 µM [inhibitor, partial curve, poor fit]
COc1cc2c(cc1Oc1cccc(N(C)C)c1)NC(=O)C21CCN(c2cnccn2)CC1 | – | inconclusive: 25.1 µM [inhibitor, single point]
C#C[C@H]1CN2CC[C@H]1C[C@@H]2COC(=O)Nc1ccc(OC(F)(F)F)cc1 | inactive: -7.38% [at 87.6 µM] | –
COc1ccc(S(=O)(=O)N2C[C@@H]3C[C@H](C2)c2c(-c4ccccc4F)ccc(=O)n2C3)cc1 | inactive: 20.2% | –
COc1ccc(-c2cc([C@H]3CN4CC[C@H]3C[C@@H]4CNC(=O)N3CCOCC3)nc(C)n2)cc1OC | inactive: -4.62% | –
CC(=O)N1CCC(C(=O)N2CCC3(CC2)NCc2ccccc2-n2ccnc23)CC1 | – | inconclusive: 15.8 µM [inhibitor, single point]
COc1cccc(-n2c(/C=C/c3ccccc3O)nc3ccccc3c2=O)c1 | – | inconclusive: 1 µM [inhibitor, full curve, poor fit]
O=C(O)C1=NOC2CN(Cc3cccnc3)CC12 (configuration not stated) | inactive: 12.8% [at 87.6 µM] | –
O=C(c1ccc(F)cc1)N1C[C@@H]2C[C@H](C1)c1ccc(C3CCCCC3)c(=O)n1C2 | inactive: -1.7% [at 87.6 µM] | –
O=C(N1[C@H]2CC[C@@H]1c1cnc(-c3ccc(F)cc3)nc1C2)C1(c2ccccc2)CC1 | – | inconclusive: 3.16 µM [inhibitor, single point]
CC[C@H]1CN2CC[C@H]1C[C@@H]2CNC(=S)Nc1ccc(N(C)C)cc1 | inactive: 32% [at 87.6 µM] | –
CCOC(=O)[C@H]1CN(C(=O)NC2CCCC2)[C@]2(C)C(=O)N(CC3CC3)c3ccccc3[C@H]12 | inactive: -18.8% [at 25.6 µM] | –
Cc1ccc(CN2C(=O)c3ccccc3Sc3ccc(C(=O)N4CCC5(CC4)OCCO5)cc32)cc1 | – | inconclusive: 20 µM [inhibitor, partial curve, poor fit]
COc1ccc(CC(=O)N2CC3(CCN(C)CC3)c3cc(OC)c(OCc4ccccc4)cc32)cc1 | inactive: 2.72% | –
COc1ccc(-c2cc([C@H]3CN4CC[C@H]3C[C@@H]4CNS(=O)(=O)c3ccccc3)n(C)n2)cc1 | – | inconclusive: 8.91 µM [inhibitor, single point]
CCN1C(=O)CCN(Cc2cccnc2)CC12CCOCC2 | – | inconclusive: 0.708 µM [inhibitor, full curve, poor fit]
CCOC(=O)[C@H]1CN(C(=O)OCC(C)(C)C)[C@]2(C)C(=O)N(C)c3ccccc3[C@H]12 | inactive: -14.4% [at 25.6 µM] | –
COc1ccc(NC(=O)N2[C@H]3CC[C@@H]2c2cncnc2C3)c(OC)c1 | inactive: 4.97% | –
COc1cc2c(cc1OCc1ccccc1)N(C(=O)c1ccc3[nH]ccc3c1)CC21CCN(C)CC1 | – | inconclusive: 2.82 µM [inhibitor, full curve, poor fit]

Compound | activity change, negative = inhibition | Potency
Cc1nc(-c2cccs2)cc([C@H]2CN3CC[C@H]2C[C@@H]3CO)n1 | – | active: 3.55 µM
CC(C)CN[C@H]1[C@H](O)[C@H](O)C[C@@H]1c1ccccc1 | – | inconclusive: 39.8 µM [inhibitor, single point]
COc1cc(OC)c(OC)cc1C=O | – | inconclusive: 0.0014 µM [inhibitor, single point]
CC(=O)c1cccc(NC(=O)NC[C@H]2C[C@@H]3CCN2C[C@@H]3c2cc(-c3cccs3)nc(C)n2)c1 | inactive: -1.39% | –
CCc1cnc(N2CCC3(CC2)C(=O)Nc2cc(OCc4ccccc4)c(OC)cc23)nc1 | inactive: -20.6% | –
N=c1c2c(-c3ccccc3)c(-c3ccccc3)n(Cc3ccccc3)c2ncn1C1CCC(O)CC1 (configuration not stated) | – | inconclusive: 34.1 µM [inhibitor, single point]
CN1CCN(C[C@H]2CN3CC[C@H]2C[C@@H]3CNS(=O)(=O)c2ccccc2)CC1 | – | inconclusive: 12.6 µM [inhibitor, single point]
O=C(Nc1ccc2n(c1=O)C[C@H]1C[C@@H]2CN(CC2CCCCC2)C1)C1CCCCC1 | inactive: -21% [at 87.6 µM] | –
Cc1cccn2c(CC(=O)N3CCN(C)[C@@H]4CS(=O)(=O)C[C@@H]43)cnc12 | inactive: 29.7% | –
O=C1CN=C(c2ccccc2Cl)c2cc(Cl)ccc2N1Cc1cccc(Cl)c1 | – | inconclusive: 20 µM [inhibitor, single point]
CCCCOC(=O)N1C[C@H](C(=O)OCC)[C@H]2c3ccccc3N(C)C(=O)[C@]21C | – | inconclusive: 3.98 µM [inhibitor, partial curve, poor fit]
C=C[C@H]1CN2CC[C@H]1C[C@@H]2CNS(=O)(=O)c1ccccc1 | – | inconclusive: 11.2 µM [inhibitor, single point]
CSc1cccc(NC(=O)NC[C@H]2C[C@@H]3CCN2C[C@@H]3CN(C)c2ccccc2)c1 | – | inconclusive: 39.8 µM [inhibitor, single point]
CN1c2cccnc2CNCC[C@H]1CO | – | inconclusive: 20 µM [inhibitor, partial curve, poor fit]
Cc1cccc(-c2nc(CN3C(=O)CN=C(c4ccccc4)c4ccccc43)c(C)o2)c1 | – | inconclusive: 39.8 µM [inhibitor, single point]
Cc1ncc2c(n1)C[C@@H]1CC[C@H]2N1C(=O)NC1CCCC1 | inactive: 5.03% | –
CC[C@H]1CN2CC[C@H]1C[C@@H]2CNC(=O)Nc1cc(OC)cc(OC)c1 | inactive: 10.6% [at 87.6 µM] | –
COc1cc2c(cc1OC1CCCC1)NC(=O)C21CCN(Cc2cccnc2)CC1 | inactive: -27.7% [at 87.6 µM] | –
COc1cc2c(cc1OCc1ccccc1)NC(=O)C21CCN(Cc2ccccc2)CC1 | – | inconclusive: 31.6 µM [inhibitor, single point]
Cc1ccc(C(=O)NC[C@H]2C[C@@H]3CCN2C[C@@H]3c2cc(-c3cccs3)nc(C)n2)cc1 | – | inconclusive: 39.8 µM [inhibitor, partial curve, poor fit]
Cc1ccc(Cl)cc1NC(=O)N(Cc1ccc2c(c1)OCO2)C1CCN(Cc2ccccc2)CC1 | – | inconclusive: 31.6 µM [inhibitor, partial curve, poor fit]
CCOP(=S)(OCC)Oc1ccc2c(C)c(Cl)c(=O)oc2c1 | inactive: -2.11% [at 25.6 µM] | –
COc1ccc2c(c1)C1(CCN(S(=O)(=O)c3cccc(F)c3)C1)C(=O)N2C (configuration not stated) | inactive: -24.2% | –

Compound | activity change, negative = inhibition | Potency
CN(C)[C@@H]1CN(C(=O)Cc2ccccc2F)C[C@H]1CO | – | inconclusive: 0.708 µM [inhibitor, full curve, poor fit]
COc1ccc(-c2cc([C@H]3CN4CC[C@H]3C[C@@H]4CNC(=O)c3cccs3)nc(C)n2)cc1OC | inactive: 31.5% | –
Cn1nccc1C(=O)N1[C@H]2CC[C@@H]1c1cnc(-c3ccc(F)cc3)nc1C2 | inactive: -2.09% | –
CC1=NN=C(c2ccc(N)cc2)c2cc3c(cc2C1)OCO3 | – | inconclusive: 15.2 µM [inhibitor, single point]
O=S(=O)(NC[C@H]1C[C@@H]2CCN1C[C@@H]2CN1CCc2ccccc2C1)c1ccc(Cl)cc1 | inactive: -2.59% | –
COc1ccc(-c2cn(C[C@H]3CC4CCN3C[C@@H]4C(=O)N3CCN(c4ccccc4OC)CC3)nn2)cc1 (some centres not stated) | – | inconclusive: 7.08 µM [inhibitor, single point]
COc1cccc(NC(=O)Cn2cc(C(=O)c3ccccc3)c3ccccc32)c1 | – | inconclusive: 25.1 µM [inhibitor, single point]
COc1nc2ccccc2cc1CN1CCC2(C1)CN(C)C(=O)O2 (configuration not stated) | inactive: -39.8% | –
COCC(=O)N1CCC2(CC1)C(=O)Nc1cc(Oc3ccccc3)c(OC)cc12 | inactive: -11.7% [at 87.6 µM] | –
COc1cc2c(cc1Oc1ccccc1)NC(=O)C21CCN(C(=O)Cc2ccccc2)CC1 | – | inconclusive: 39.8 µM [inhibitor, single point]
COc1ccc(S(=O)(=O)NC[C@H]2C[C@@H]3CCN2C[C@@H]3CN2CCOCC2)cc1 | inactive: 3.87% [at 87.6 µM] | –
CC1(C)CC/C(=C/c2ccc(Cl)cc2)C1(O)Cn1cncn1 (configuration not stated) | inactive: -41.4% | –
COCC(=O)NC1CCC12CCNCC2 (configuration not stated) | – | inconclusive: 8.91 µM [inhibitor, single point]
Cn1nc(-c2ccc(F)cc2)cc1[C@H]1CN2CC[C@H]1C[C@@H]2CNC(=O)COc1ccccc1 | – | inconclusive: 20 µM [inhibitor, single point]
COC1CCN(CC2CCCCCN2C(=O)Cc2cccc(F)c2)CC1 (configuration not stated) | inactive: -4.7% | –
C=C[C@H]1CN2CC[C@H]1C[C@@H]2CNS(=O)(=O)c1ccc(OC)cc1 | – | inconclusive: 50.1 µM [inhibitor, single point]
c1ccc2cc(CC3=NCCN3)ccc2c1 | – | inconclusive: 22.4 µM [inhibitor, single point]
Cc1ccccc1CC(=O)N1CCC2(CC1)c1nccn1-c1ccccc1CN2C | – | inconclusive: 1.26 µM [inhibitor, full curve, poor fit]
CC(=O)N1C2CCC1CN(Cc1cccnc1)C2 | – | inconclusive: 56.2 µM [inhibitor, single point]
O=C1NC2(CCCN(Cc3ccccn3)C2)COc2ccccc21 (configuration not stated) | – | inconclusive: 50.1 µM [inhibitor, partial curve, poor fit]
CCNC(=O)NC[C@H]1C[C@@H]2CCN1C[C@@H]2c1cc(-c2ccc(OC)c(OC)c2)nn1C | – | inconclusive: 11.2 µM [inhibitor, single point]
